In article PMC6919601, “Identification of Plasmodium dipeptidyl aminopeptidase allosteric inhibitors by high throughput screening” (PLoS ONE, 2019):
About 230 (0.21%) of roughly 110,000 compounds showed an effect of 50% or more. The list shows a part of the results.

These compounds were tested against DPAP1 (Plasmodium falciparum, UniProt Q8IIJ9) (assay: primary screen, percent inhibition; read by cleavage of a fluorogenic dipeptide substrate; higher = more effect of the substance).
Set-up: species or system P. falciparum D10 trophozoite lysates; single well
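Note: 30 min substrate incubation versus DMSO and 10 µM JCP410 controls.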

Sequence of DPAP1 (Q8IIJ9 whole entry, looked up): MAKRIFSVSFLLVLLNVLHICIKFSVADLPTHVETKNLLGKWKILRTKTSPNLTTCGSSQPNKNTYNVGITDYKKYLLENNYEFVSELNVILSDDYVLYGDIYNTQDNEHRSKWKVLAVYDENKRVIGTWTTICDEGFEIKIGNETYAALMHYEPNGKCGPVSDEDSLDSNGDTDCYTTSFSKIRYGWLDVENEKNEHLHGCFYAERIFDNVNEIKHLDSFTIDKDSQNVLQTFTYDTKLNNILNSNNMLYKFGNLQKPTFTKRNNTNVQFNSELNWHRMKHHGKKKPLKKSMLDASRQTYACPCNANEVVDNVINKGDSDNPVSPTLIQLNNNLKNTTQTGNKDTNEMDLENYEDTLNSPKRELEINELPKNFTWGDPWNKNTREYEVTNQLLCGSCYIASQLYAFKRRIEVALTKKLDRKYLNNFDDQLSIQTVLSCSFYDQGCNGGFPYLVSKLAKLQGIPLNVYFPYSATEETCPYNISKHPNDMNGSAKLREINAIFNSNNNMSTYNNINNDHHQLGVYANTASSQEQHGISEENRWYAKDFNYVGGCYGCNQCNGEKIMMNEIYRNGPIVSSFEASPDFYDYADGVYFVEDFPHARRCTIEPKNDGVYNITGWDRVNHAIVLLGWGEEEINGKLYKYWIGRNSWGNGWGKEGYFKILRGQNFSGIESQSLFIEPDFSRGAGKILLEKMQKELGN

Row | Structure (SMILES) | % Inhibition @ 10 uM [%]
1 | COc1ccc2nc3sc(C(=O)N4CCN(Cc5ccc6c(c5)OCO6)CC4)cc3cc2c1 | -1.55
2 | Cc1nn(C)c(C(=O)Nc2cnn(Cc3ccc(Cl)cc3Cl)c2)c1Br | -4.21
3 | CCOC(=O)c1[nH]c2sc(C)c(C)c2c1N | -3.08
4 | Cc1ccc2[nH]c(SCC(O)c3ccccc3)nc2c1 (stereo not drawn) | -1.31
5 | CCc1ccc(C2C3=C(O)CCCC3=NC(C)=C2C(=O)Nc2ccc(F)cc2)cc1 (stereo not drawn) | 4.11
6 | N#C/C(=C\c1cccc2ccccc12)c1nc(C2CC2)cs1 | -2.51
7 | CCOc1ccc(C(=O)Nc2cccc(Cl)c2)cc1 | 2.43
8 | COc1ccc(N2C(=O)CC(Sc3nccc(C)n3)C2=O)cc1 (stereo not drawn) | 0.727
9 | CCc1c(C)nc(SCC(N)=O)c(C#N)c1C | -2.44
10 | Cn1c(=O)[nH]c(=O)c2c1nc(N=Nc1c(O)[nH]c3ccc(Br)cc13)n2CC(O)CO (stereo not drawn) | 8.01
11 | Cc1ccc(C(=O)N/C(=C\c2ccco2)C(=O)N2CCCCCCC2)cc1C | -2.88
12 | COc1ccc(CCNC(=O)CN(C)S(=O)(=O)c2ccc3[nH]c4c(c3c2)CCCC4)cc1OC | 2.97
13 | COc1ccc(NC(=O)c2nc3nc(-c4cccs4)cc(C(F)(F)F)n3n2)c(OC)c1 | 14.4
14 | CC(=O)/C(=C\Nc1nc(C)c(Br)c(C)n1)C(=O)Nc1ccccc1 | -4.12
15 | CCN(CC)C(=O)c1ccc(COc2cccc3ccccc23)o1 | -3.13
16 | CCCCN(C)c1ncnc2scc(-c3ccccc3)c12 | -1.48
17 | CC1CCN(CC(O)COc2ccc(C(C)C)cc2)CC1 (stereo not drawn) | -9.51
18 | O=C(O)c1ccccc1C(=O)Nc1ccccc1NC(=O)c1ccccc1C(=O)O | 0.0974
19 | COc1cc(C)c(CN2CCC(N3CCCCC3)CC2)cc1C | -0.0494
20 | CCN1CCN(Cc2ccc3c(c2)OCO3)CC1 | 3.16
21 | C=CCOc1c(Br)cc(CNc2nccs2)cc1OCC | -7.28
22 | CCC(C(=O)Nc1ccc(Cl)cc1)c1ccccc1 (stereo not drawn) | -7.11
23 | CC(NC(=O)c1nnc(Cc2ccc(Cl)cc2)o1)c1ccccc1 (stereo not drawn) | -0.414
24 | Cc1ccc(-c2ccccc2)n1-c1cccnc1 | 3.65
25 | O=C(O)C1CCCCC1C(=O)NCCc1ccncc1 (stereo not drawn) | 0.64

Row | Structure (SMILES) | % Inhibition @ 10 uM [%]
26 | Cc1nn(CC(=O)NC(C)C23CC4CC(CC(C4)C2)C3)c(=O)c2c1sc1ccccc12 (stereo not drawn) | -0.856
27 | CN(C)c1ccc(/C=C/c2nc(=O)c3ccccc3o2)cc1 | 26.3
28 | CCc1ccc(S(=O)(=O)Nc2cccc(-c3cn4ccsc4n3)c2)cc1 | 1.37
29 | CCN(CC)Cc1nc(O)c2c(n1)-c1ccccc1CC21CCCC1 | -3.44
30 | O=C(CCC1CCCCC1)N1CCN(C(=O)CCC2CCCCC2)CC1 | 2.03
31 | CN1C(=O)N(C)C(=O)C(Cc2ccccc2)(Cc2ccccc2)C1=O | 2.58
32 | CC(C)c1c(O)n2nc(-c3ccccc3)ccc2[n+](-c2ccc(F)cc2)c1=O | 1.58
33 | CCc1cccc(-n2nnc(-c3nsc(NC(=O)c4ccccc4)n3)c2C)c1 | -5.47
34 | COC(=O)c1ccc(CN(CCc2ccccc2)Cc2ccccc2)cc1 | -3.57
35 | O=C(Cn1sc2ccccc2c1=O)NC1CCCc2ccccc21 (stereo not drawn) | -6.47
36 | CC(C)Cn1cc(C(=O)NCc2ccc(F)cc2Cl)c2c3ccccc3n(C)c2c1=O | -5.77
37 | Cc1ccc(Cl)cc1NC(=O)COc1ccc(Br)cc1 | 4.22
38 | COc1cccc2cc(-c3nc(O)c4c(C)c(C(=O)Nc5ccccn5)sc4n3)c(=O)oc12 | -2.88
39 | Cc1c(CNCCC(C)C)c(C(=O)O)c(C)n1Cc1ccccc1F | 1.41
40 | CC1CCC(NCCN2CCCCC2)C1 (stereo not drawn) | -1.64
41 | CCc1nn(C(C)C(=O)NCc2ccc(OC(C)C)cc2)c(=O)c2cc3occc3n12 (stereo not drawn) | -5.15
42 | c1ccc(CN2CCN(c3ccccn3)CC2)cc1 | -0.294
43 | Cc1ccc(-c2nc(CSCC(=O)N3CCN(C(=O)c4ccco4)CC3)c(C)o2)cc1 | -2.85
44 | COc1ccc(OC)c(CN2CCCN(C)CC2)c1 | -1.77
45 | Cn1c(=O)n(C)c2cc(/C=C3/SC(=O)N(CC(=O)Nc4ccc(F)cc4)C3=O)ccc21 | -1.79
46 | CC[C@H](NC(=O)C(Cc1c(F)cccc1F)NC(=O)c1ccc(-c2ccccc2Cl)cc1)C(=O)c1nc2ncccc2o1 (stereo partly drawn) | -5.2
47 | CC(C)(C)OC(=O)N1CCN(S(=O)(=O)c2ccc(C(=O)NC3(C(=O)NCC#N)CCCCC3)cc2)CC1 | -1.41
48 | COc1cc2c(cc1OC)CN(C(=O)C(c1ccccc1)c1ccccc1)CC2 | 0.222
49 | O=C(CSc1nnc(-c2ccccc2)o1)N1CCOCC1 | -0.999
50 | COc1cc2oc(C(=O)N3CCN(Cc4ccccc4)CC3)c(C)c2cc1Br | -1.76

Row | Structure (SMILES) | % Inhibition @ 10 uM [%]
51 | CCC(NS(=O)(=O)c1ccc(C)cc1)C(=O)N1CCCCC1 (stereo not drawn) | -5.28
52 | COc1ccc(C2C(C#N)=C(N)Oc3ncnc(O)c32)cc1Br (stereo not drawn) | -2.77
53 | Cc1nc2ccccc2n1CCc1nc2c3ccccc3nc(NCC3CCCO3)n2n1 (stereo not drawn) | -4.21
54 | CCN(CC)c1ccc(C2C(C#N)=C(N)N(c3cccc(C)c3)C3=C2C(=O)CCC3)cc1 (stereo not drawn) | 3.15
55 | CC(CCc1ccccc1)NC(=O)CCN1C(=O)c2ccccc2Sc2ncccc21 (stereo not drawn) | -18.3
56 | CCN1C(=S)NC2c3cc(C(C)(C)C)cc(O)c3OC13CCCC23 (stereo not drawn) | -0.499
57 | O=C(Cn1cc(S(=O)(=O)Cc2cccc(Cl)c2)c2ccccc21)NC1CCCC1 | -3.22
58 | O=C(NCCc1c[nH]c2ccccc12)c1ccc([N+](=O)[O-])cc1 | -3.58
59 | Cc1ccc(C)n1-c1nnc(N2CCCC(C(=O)NCc3ccco3)C2)s1 (stereo not drawn) | -2.37
60 | Cc1ccc(-c2nnn(Cc3nc(O)c4ccccc4n3)n2)cc1 | -5.72
61 | COc1ccc(-c2cc(-c3cccnc3)nc3ccc4ccccc4c23)cc1 | 3.48
62 | CCOc1ccc(/C=C(\C#N)c2nc(-c3ccc(Br)cc3)cs2)cc1 | 0.912
63 | COc1cc(C(C)=O)ccc1OCC(O)Cn1cncn1 (stereo not drawn) | 4.57
64 | Cn1c(=O)c(C(=O)NC2CC2)c(O)c2ccccc21 | 0.345
65 | Cc1ccccc1Cc1c(C)nc2c(C(=O)NCc3ccccn3)cnn2c1C | 1.27
66 | Nc1c(C(=O)NCCC2=CCCCC2)nnn1-c1cccc(C(F)(F)F)c1 | 7.7
67 | Cc1cc(C)c(NC(=O)c2cc(F)c(F)cc2Cl)c(C)n1 | 2.99
68 | CN(C)Cc1cc(-c2ccccc2)c2ccccc2c1 | 0.343
69 | COc1ccc(CN2CCN(Cc3ccc(C)cc3)CC2)c(OC)c1OC | 17.9
70 | CCOc1ccc(/C=C2/SC(=O)N(Cc3cccc(C(=O)O)c3)C2=O)cc1 | 6.68
71 | O=C(COc1ccccc1Br)c1ccc(O)cc1O | -3.06
72 | O=C(NC1CCCCCCC1)c1cccs1 | 0.823
73 | Cc1nn(-c2ccc(Cl)cc2Cl)c(=O)c2ccccc12 | -2.48
74 | O=C(NCc1ccc(F)cc1)C1CCN(c2ccc(N3CCOCC3)nn2)CC1 | 3.75
75 | CCOc1ccc(-c2nn(-c3ccccc3)cc2/C=c2\sc3nc(=O)c(C)nn3c2=O)cc1 | 1.32

Row | Structure (SMILES) | % Inhibition @ 10 uM [%]
76 | Cc1ccccc1Cn1cc(SCC(=O)Nc2nccs2)c2ccccc21 | -4.82
77 | CC(C)OCCCNC(=O)c1cc2c(=O)n3ccccc3nc2n1C | 4.03
78 | O=C(CCn1c(=O)c2sccc2n(Cc2ccc(F)cc2Cl)c1=O)NCc1ccccc1 | 1.23
79 | CCOc1ccc(NC(=O)CNS(=O)(=O)c2ccc(OC)cc2)cc1 | 9.79
80 | Cc1ccccc1C1CC(=O)NC(SCC(=O)Nc2ccc(Br)cc2)=C1C#N (stereo not drawn) | 0.777
81 | CCOC(=O)c1cccc(CNC(=O)[C@H](CCSC)N2Cc3ccccc3C2=O)c1 | -2.25
82 | COc1ccc(NC(=O)c2cccc(NC(=O)c3ccc(Br)o3)c2)cc1 | -3.33
83 | CCOC(=O)c1sc(Cl)nc1C | 4.01
84 | CCOc1cccc2cc(-c3nc(-c4ccccc4F)no3)c(=O)oc12 | -2.26
85 | COC(=O)c1cn(-c2ccccc2)nc1N | 4.61
86 | CC1CCCC(C)N1C(=O)CSCc1cnn(-c2ccccc2)c1-n1cccc1 (stereo not drawn) | 0.623
87 | COc1ccc(-c2csc3ncnc(O)c23)cc1 | 2.08
88 | Cc1nc(O)c2c(n1)OC(N)=C(C#N)C2c1ccc(Cl)c(Cl)c1 (stereo not drawn) | -4.01
89 | COCC(C)NCc1ccc(OC)c(Br)c1 (stereo not drawn) | 5
90 | Cc1ccc(OCC(=O)Nc2cccc(C(=O)O)c2)cc1 | -5.85
91 | CCC(C)NS(=O)(=O)c1ccccc1[N+](=O)[O-] (stereo not drawn) | -0.999
92 | O=C(CSc1nnc(CNC(=O)c2cccs2)o1)NCCc1ccccc1 | -3.39
93 | Cc1cc(S(=O)(=O)n2nc(-c3ccccc3)cc2N)ccc1F | -0.495
94 | COc1ccc(CCNC(=O)C2CCCN(S(=O)(=O)N3CCCCCC3)C2)cc1OC (stereo not drawn) | -2.26
95 | COc1cccc(NC(=O)CN(Cc2ccc(Cl)c(Cl)c2)S(=O)(=O)c2ccccc2)c1 | 1.29
96 | CCOC(=O)c1cnc(-c2ccccc2)nc1C1CCNCC1 | 4.01
97 | O=C(NC(=O)c1ccccc1F)OCCN1CCN(c2ncc(C(F)(F)F)cc2Cl)CC1 | -4.49
98 | COc1ccc(-c2nc(NCCc3c[nH]c4ccc(OC)cc34)sc2C)cc1 | -6.71
99 | COc1cc(C(=O)OC(c2ccc3c(c2)OCO3)c2nccc3ccccc23)cc(OC)c1OC (stereo not drawn) | 0.131
